Experimental data as given in the supplement of paper PMC11417369.
The list shows a part of the results.

test system: PfSIP2 AP2 domain 1 (GST-tagged); assay: gcPBM binding intensity (ln(normalized median fluorescence intensity)); higher = stronger DNA binding
In short: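 Using an Agilent 4 × 180k array, primer-extended double-stranded 36-bp intergenic genomic probes and negative controls were exposed for 1 h to GST-fused P. falciparum DNA-binding domains expressed in E. coli. Binding was carried out in 1× PBS with 1% milk, 0.2 mg/ml BSA, 0.5% salmon testes DNA and 0.03% Triton X-100, and protein was detected with Alexa488 anti-GST antibody and a 488 nm scan. Binding intensity is the highest Masliner-normalised natural-log median intensity across replicate spots of either probe orientation.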

Row | Sequence | gcPBM binding intensity (ln)
1 | TATTTCTTTATTGGCACACATTTTTTCAATTATATA [CACACA_site4975] | 7.32
2 | GCAAATATGTTGATATGTACATATATATATATATAT [XGTACX_site445] | 9.06
3 | ATTATTTTAATAAAACGTACAAAATATAAATCAAAA [XGTACX_site3770] | 7.3
4 | AAAAAATATACATATACACACATATGTATATATAAT [CACACA_site8676] | 7.01
5 | AATAACAAAATATTAACACACATAACATATTATAAA [CACACA_site2803] | 6.85
6 | TTTTTTCATATAAATACATGCACACAAAAATATCAA [TGCATGCA_site602] | 8.63
7 | TAATGTTTTTTTTGTTTACCAAAAATAATACATTAT [CACACA_negctrl_site203] | 6.96
8 | AGTAGATATAATTATAGTACTTTGATGTTTTCTTTA [XGTACX_site5038] | 6.82
9 | TTTTTTTTTAGAAAAACATGCATGTCCTAAAAATAA [TGCATGCA_site684] | 7.21
10 | TGGCAAAATAGGCACACACACATATACATCTATATT [CACACA_site6626] | 7.11
11 | ATATGATAAATTATATGTACTTAAAATATATTATAA [XGTACX_site5904] | 6.92
12 | AAAAAAAAAAAAAAAAAAAAAAAAACAATGAATTTA [GTGCAC_negctrl_site698] | 8.68
13 | TTTTTCTATATTTTCTTTTATAAAATATATAATTTT [GTGCAC_negctrl_site345] | 6.76
14 | GTCATATATTATAATAGTACATAAATAATTGATGCC [XGTACX_site3567] | 7.1
15 | ATAGTTATTTTATAGCGTACACAATAAATATATAAA [XGTACX_site4445] | 7.23
16 | CACAGAAATAGAGATACACACACACCGATATTTATG [CACACA_site9313] | 6.84
17 | ATGTATTTATTATTTAGTACACATTATTTTCTTATA [XGTACX_site6365] | 7.05
18 | AAATTTTCTTTTAAGTGTACGAAATTTAGTATTTCA [XGTACX_site7819] | 6.74
19 | TAAACAGTATGCAACGCATGCGTTGTTATATATAAA [TGCATGCA_site232] | 6.73
20 | ATTTTTTTTTTTTTTTTTTTATTCTTAATTCATATA [CACACA_negctrl_site342] | 6.66
21 | TTTTTGTTTGTTCACGACTACATTATGTCATAAATG [CACACA_negctrl_site597] | 7.07
22 | TATATATAAATATATACACACATGAAAATAAATAAA [CACACA_site2514] | 6.98
23 | ATCTATGTTCCTTTTACACACATAATCTTTTTTTTA [CACACA_site5468] | 7.35
24 | ATATATATATATTATACACACAAAAATATTTTGTAT [CACACA_site266] | 9.09
25 | CGTGGGAGCAGACACACACACACACGCATATTTATA [CACACA_site6290] | 6.85
26 | ATGGACAAAAAATATATACACACGAGGAAACCAACA [CACACA_site3726] | 7.2
27 | TTTTGTTTTTACGAATACTTTTTTAATTTTATTTAT [TGCATGCA_negctrl_site395] | 6.67
28 | CATGCATACTACATCTGTACACATACATTATATTTA [XGTACX_site2495] | 7.14

Row | Sequence | gcPBM binding intensity (ln)
29 | GTAAATTATATAACAAATAAAAATGTACATATATAT [CACACA_negctrl_site408] | 7.4
30 | TATACTTTATATATTTTGTATATATATTTTTTTTAT [TGCATGCA_negctrl_site530] | 7
31 | AATAAAAAGTAATAATAACGTATAATTTATTATACT [TGCATGCA_negctrl_site414] | 6.68
32 | TCTTGTTATTTAAATGCATGTTGATTTTAAAAAATT [TGCATGCA_site840] | 7.18
33 | ATATATATAGATTGTACACACATTTATGCATATATA [CACACA_site3222] | 7.79
34 | ATAACATTCTATGTTGCACACAAAGAGAAAAATTTA [CACACA_site9322] | 6.94
35 | ACGCAATATTAACAAGTGCATTATAACACATAACAT | 8.22
36 | TTTATAATTTATATCACACATATATCTGTAATAAAT [CACACA_site5048] | 6.94
37 | ATCTCTGTAAAGATCACACATATATTTTTGTTATAT [CACACA_site5094] | 6.84
38 | TATATATTATATATATGTACATATTGTTGTGTATAT [XGTACX_site767] | 7.32
39 | CATATATGTTATATTTAACACACATATAAGGTACAT [CACACA_site8105] | 7.14
40 | CAGCTCTTAAAAATTACACACATATACACATATATA [CACACA_site9073] | 6.94
41 | TTATTACACACATATGTGCACATATAAAAGTACACG [GTGCAC_site9581] | 8.7
42 | TTTCTAGTTACAAGAGTGCATAATATATAAAAATAA [GTGCAC_site9874] | 9.76
43 | TATAAATACAATTCACAAGAGATCATGTATCAAACC [CACACA_negctrl_site1219] | 6.8
44 | TATATATATATATATACACACATTTTTAATGATAAA [CACACA_site2695] | 9.29
45 | ATATAATAAATATGTTGTACTATAAAAAATAGCCAT [XGTACX_site4710] | 7.01
46 | ACTAATTACTATAAAACACACATATATATATATATA [CACACA_site2591] | 9.68
47 | TTAGTCGAATGATGTACACACATACAAAACATTTAT [CACACA_site6076] | 7.06
48 | AGAAAATATTTTGGTTGTACAGGCGATTTATATGTT [XGTACX_site7253] | 7.15
49 | AAAAAAAAAAAAAAAAAAAAAAAAAAAAGAAAAAAG [GTGCAC_negctrl_site583] | 8.76
50 | TTATATTTTCAGAATAGTACACATATATACATATAT [XGTACX_site2519] | 7.08
51 | AAAAATTCTTGGCGCACACACTTTAAAAATTAAAAA [CACACA_site4498] | 7.32
52 | GATCATTTAAAATAAGTAATATTTTTTTTACTTTTG [TGCATGCA_negctrl_site602] | 6.64
53 | TTATAAAAGAAAAAAAAAAAAAAAAAAAAAAAAAAA [CACACA_negctrl_site1006] | 7.01
54 | TTTAGCCAATTTTTAAAGTTTAAAAAAGAAAAAAGA [CACACA_negctrl_site118] | 6.8
55 | TATTAAAAATACATATGTACTCATAGCATAAAACAT [XGTACX_site8686] | 7.1
